Reference: PubChem BioAssay AID686979 (National Center for Advancing Translational Sciences (NCATS), 2013)
In all, about 420,000 compounds went through this assay and about 50,000 (12%) were called active. Inconclusive results, whose numbers are uncertain, are shown with a selection of clear calls. The call rests on the fitted dose curve; in most records, active means well fitted inhibition curve with a large enough effect; inconclusive means small, poorly fitted or top-dose-only effect; inactive means flat fitted curve, though single readings scatter. No potency is given beside an inconclusive call; the fits are too rough.

assay: qHTS for Inhibitors of human tyrosyl-DNA phosphodiesterase 1 (TDP1): qHTS in cells in presence of CPT; conditions: chicken DT40 Tdp1-/-;hTDP1 cells + 20 nM CPT, ATP luminescence, 48 h; activity change, negative = growth inhibition: at 46.2 µM (top of the series); further: nearly all actives have a fitted effect of over 55% in size
In short: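 Cell growth measured by CellTiter-Glo luminescence after a minimum 48 h, 37 C compound exposure with 20 nM CPT in Tdp1-knockout DT40 cells stably expressing hTDP1, seeded 400/well; qHTS titration format.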
On the % scale 0 is the no-effect control and ±100 the full control effect; potency means the concentration at half of the fitted maximal effect; tags describe the fitted curve by direction and shape.

Structure (SMILES)	Potency	activity change, negative = growth inhibition
CC(=O)O[C@@H]1CC2C(C)(C)C(=O)C=C[C@]2(C)C2CC[C@]3(C)C(=CC[C@H]3C3CO[C@@H](C(C)(C)O)[C@H](O)C3)[C@@]21C (stereo partly drawn)	inconclusive [inhibitor, full curve, poor fit]	–
O=C(Nc1cc(S(=O)(=O)N2CCOCC2)ccc1N1CCCC1)c1ccccc1C(F)(F)F	–	inactive: 6.13%
COc1ccc2c(c1OC)C(=O)N1N=C(c3ccc(F)cc3)CC21 (stereo not drawn)	inconclusive [inhibitor, single point]	–
CCCC/C=C/c1cccc2nncn12	–	inactive: -26.4%
Cn1nc(C(C)(C)C)cc1C(=O)N1CCCCC1c1cc(C(=O)Nc2cccc3c2CCCC3)no1 (stereo not drawn)	inconclusive [inhibitor, single point]	–
CCc1nc2ccc(C(=O)NCCOc3ccc(OC)cc3)cn2c1N(CCN(C)C)CC1CC1	inconclusive [inhibitor, single point]	–
N#Cc1c(NC(=O)c2ccc(N3CCOCC3)c([N+](=O)[O-])c2)sc2c1CCCC2	–	inactive: 0.828%
CC1CCN(S(=O)(=O)c2ccc3[nH]cc(C(=O)NCc4ccc(F)cc4)c(=O)c3c2)CC1	–	inactive: -1.6%
CNc1cncc(C(=O)O)c1	–	inactive: 10.4%
CCOc1ccc(CCNC(=O)c2cc(Nc3ccc(C)cc3C)nc3ccccc23)cc1OCC	active: 8.2 µM	–
O=C(CNc1cccc([N+](=O)[O-])c1)NC(=O)NC1CCCCC1	active: 14.6 µM	–
O=C1c2ccccc2C(=O)c2cc(Cn3cc(-c4cccc(C(F)(F)F)c4)nn3)ccc21	inconclusive [inhibitor, single point]	–
O=C(Nc1nnc(C2=COCCO2)o1)c1ccc(Cc2ccccc2)cc1	inconclusive [inhibitor, single point]	–
CSCCC(NC(=O)COc1ccccc1)C(=O)N(C)Cc1ccc(F)cc1 (stereo not drawn)	inconclusive [inhibitor, single point]	–
Cc1ccc(N2CC(O)=C(c3nc4ccccc4c(=O)[nH]3)C2=N)cc1C	inconclusive [inhibitor, single point]	–
O=C1NC2(CCCCCC2)C(=O)N1Cc1cccc([N+](=O)[O-])c1	inconclusive [inhibitor, single point]	–
O=C(O)CC/C(=C\c1ccc(Cl)c([N+](=O)[O-])c1)c1nc2ccccc2s1	inconclusive [inhibitor, single point]	–
CCNc1nc2c(cnn2C)c(=O)[nH]1	–	inactive: 4.37%
CN(C(=O)c1cccc(NC(=O)Cc2ccc(NC(=O)C3CCCN(C(=O)C4CCC4)C3)cc2)c1)C1CCCC1 (stereo not drawn)	inconclusive [inhibitor, single point]	–
COc1cc2[nH]c(=O)n(Cc3ccc(C(=O)NCc4ccc(C)cc4)cc3)c(=O)c2cc1OC	inconclusive [inhibitor, full curve, poor fit]	–
CCN1C(=O)[C@H]2[C@@H](c3ccc(C)cc3)N[C@]3(CCCN(Cc4ccc(OC)cc4)C3=O)[C@H]2C1=O	inconclusive [inhibitor, single point]	–
CCCc1nc2ccc(C)cn2c1Cc1ccc(C)cc1	active: 20.6 µM	–
COc1cc(OC)c2c(C)cc(=O)oc2c1C(CCN1CCOCC1)c1ccc2c(c1)OCO2 (stereo not drawn)	active: 18.4 µM	–

Structure (SMILES)	Potency	activity change, negative = growth inhibition
Cc1ccc(S(=O)(=O)Cc2ccc(C(=O)N3CCN(c4ccccn4)CC3)o2)cc1	active: 11.6 µM	–
O=C(N/N=C/c1ccc(OC(=O)c2ccccc2)cc1)c1cccc(O)c1	inconclusive [inhibitor, single point]	–
CC(=O)c1ccc(-c2cccc(-c3nc4ccccn4c3NC3CCCCC3)c2)cc1	active: 23.1 µM	–
O=C(OCc1cn([C@@H]2CN(C(=O)c3cccs3)[C@@H](c3ccccc3)C[C@H]2O)nn1)c1ccccc1	inconclusive [inhibitor, single point]	–
CCN(C[C@H]1N[C@@](Cc2ccccc2)(C(=O)OC)[C@H]2C(=O)N(Cc3ccccc3)C(=O)[C@@H]12)C(=O)NC(C)C	inconclusive [inhibitor, single point]	–
Cc1ccc(OCc2ccc(C(=O)NCC3CCCO3)cc2)cc1C (stereo not drawn)	inconclusive [inhibitor, single point]	–
CC1Oc2ccccc2N(CC(=O)Nc2ccc3c(c2)OCO3)C1=O (stereo not drawn)	–	inactive: -2.17%
O=C(COC(=O)c1cc([N+](=O)[O-])ccc1N1CCOCC1)Nc1ccc(Cl)cn1	inconclusive [inhibitor, single point]	–
COc1cc(C(=O)N2CCN(S(=O)(=O)c3cc(C)ccc3C)CC2)ccc1OCC(=O)N1CCOCC1	–	inactive: -3.44%
COC(=O)c1ccccc1NC(=O)C1CC(=O)N(c2ccc(C)c(C)c2)C1 (stereo not drawn)	–	inactive: 8.05%
CC(C)(C)c1ccc(NC(=O)COc2ccc(-n3ccnc3)cc2)cc1	active: 14.6 µM	–
CN(c1ccccc1)S(=O)(=O)c1cccc(C(=O)OCC(=O)NCc2ccc3c(c2)OCO3)c1	–	inactive: -7.81%
CC(C)Cn1c(SCC(=O)NC2CC2)nc2ccccc21	–	inactive: -0.92%
COc1ccccc1-c1cc(NCc2cccs2)ncn1	inconclusive [inhibitor, single point]	–
Cc1ccc(C(=O)OCC(=O)N2CCC(c3ccccc3)=N2)cc1	–	inconclusive: -34.7% [inhibitor]
CC1=C(C(=O)Nc2cccc(C(F)(F)F)c2)C2(CCCCCC2)OC1=O	active: 16.4 µM	–
Cc1cc(C)cc(C(O)c2ncc(-c3ccc(C(F)(F)F)cc3)[nH]2)c1 (stereo not drawn)	inconclusive [inhibitor, single point]	–
O=C(NCCC1=CCCCC1)c1ccc(Cl)c([N+](=O)[O-])c1	inconclusive [inhibitor, single point]	–
O=S(=O)(c1ccccc1)c1cnc(-c2cccnc2)nc1-c1ccc(Cl)cc1Cl	inconclusive [inhibitor, single point]	–
CCOc1ncccc1C(=O)OCC(=O)Nc1ccc(C)c(S(=O)(=O)N2CCOCC2)c1	inconclusive [inhibitor, partial curve, poor fit]	–
COc1ccc(C(C(=O)NC2CCCCC2)N(C(=O)Cc2c[nH]c3ccccc23)c2ccccc2)cc1OC (stereo not drawn)	inconclusive [inhibitor, single point]	–
COc1ccccc1NC(=O)CSC(N)=O	inconclusive [inhibitor, single point]	–
CCOC(=O)CC(NS(=O)(=O)c1cc(-c2cc(C)no2)ccc1C)c1ccc(C)cc1 (stereo not drawn)	active: 20.6 µM	–

Structure (SMILES)	Potency	activity change, negative = growth inhibition
Cc1ccc(OCc2ccc(C(=O)O)o2)cc1C	–	inactive: -13.5%
CC(C)CCn1c(=O)c2sccc2n2c(CCCC(=O)Nc3ccc(C(C)C)cc3)nnc12	inconclusive [inhibitor, single point]	–
Cc1ccc(C)c(S(=O)(=O)N2CCCOC2CNC(=O)C(=O)NCc2ccc3c(c2)OCO3)c1 (stereo not drawn)	inconclusive [inhibitor, single point]	–
O=C(NCCc1ccc2c(c1)OCCO2)c1cc(S(=O)(=O)N2CCCC2)ccc1Br	inconclusive [inhibitor, single point]	–
COc1ccc(-n2c(-c3cc(-c4ccccc4)sc3N)n[nH]c2=S)cc1	inconclusive [inhibitor, single point]	–
COc1ccc(CN(C)C(=O)C2CCN(S(=O)(=O)c3cccs3)CC2)cc1F	inconclusive [inhibitor, single point]	–
CNC(=S)N(Cc1ccco1)Cc1cc2cc(OC)c(OC)cc2[nH]c1=O	–	inactive: 3.28%
O=C(CNC(=O)OCc1ccccc1)NCC(=O)NC(Cc1c[nH]c2ccccc12)C(=O)O (stereo not drawn)	–	inactive: -2.54%
O=C(Nc1cccc(NC(=O)c2cccc(F)c2)n1)c1cccc(F)c1	inconclusive [inhibitor, single point]	–
CCc1nc2c(OCCOC)cccn2c1N(C)C(=O)c1ccc(C)cc1	–	inactive: -3.39%
Cc1cccc(C)c1NC(=O)c1csc(COCCO)n1	–	inactive: -0.139%
Cc1ccc(-c2csc(NNC(=O)c3ccccc3)n2)cc1	active: 4.11 µM	–
CCOc1ccc2nc(NC(=O)c3nc(SCc4ccc(C)cc4)ncc3Cl)sc2c1	–	inactive: -0.707%
CCC1CCc2sc(C(=O)NC3CCN(Cc4ccccc4)CC3)cc2C1 (stereo not drawn)	active: 20.6 µM	–
Cc1ccc(CNC(=O)CNC(=O)c2ccc(C(C)(C)C)cc2)n1C	inconclusive [inhibitor, single point]	–
O=C(CCCSc1nc(-c2ccco2)cc(C(F)(F)F)n1)NCc1cccs1	inconclusive [inhibitor, single point]	–
Cc1ccc2[nH]c(C(=O)N3CCCCC3)cc2c1	inconclusive [inhibitor, single point]	–
CC(C)C[C@H]1CNC(=O)C(=O)N1C[C@@H]1CCCN1C[C@H](Cc1ccccc1)N1C[C@H](Cc2ccccc2)N(CC2CCCCC2)C(=O)C1=O	inconclusive [inhibitor, single point]	–
CCOC(=O)c1ccc(NC(=O)c2cc(S(=O)(=O)N3CCOCC3)ccc2O)cc1	inconclusive [inhibitor, single point]	–
CC(=O)n1nc(-c2ccccc2)cc1-c1ccccc1	–	inactive: -15.6%
N#CCc1ccc(OC(=O)c2cnccc2C(F)(F)F)cc1	–	inactive: -3.06%
Cc1cccc(C)c1NC(=O)CN(C)S(=O)(=O)c1ccc2[nH]c3c(c2c1)CCCC3	inconclusive [inhibitor, single point]	–
